The text below walks through data of the supplement of paper PMC10338343.

± gives the standard deviation. Only a part is listed here, and it is no random draw.

For this assay, the system named is MIWI (PIWIL1) piRISC loaded with piRNA #1 (30 nt). The assay can be described thus: pre-steady-state target cleavage rate (min^-1); MIWI and MILI are mouse PIWI proteins and EfPiwi is from a freshwater sponge; tags in brackets are library labels; higher = faster piRNA-guided slicing of the target. Particulars: guide: piRNA #1 5'p-UGAGGUAGUAGGUUGUAUAGUAUCCAGAGG; auxiliary factor: 500 nM mouse GTSF1. In outline:
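The method was Cleave-'n-Seq, in which uncleaved targets from a transcribed, DNA-blocked target RNA library were sequenced after exposure to active affinity-purified piRISC carrying one synthetic guide, with or without GTSF1 partner protein. Reactions contained 0.1 nM library, 1 nM piRISC and, where present, 500 nM GTSF1 in HEPES–potassium acetate buffer at 33 °C for 0–8 or 0–960 min. Reads were normalised to depth and to weakly complementary targets, three trials were pooled, and k3 was capped at 0.0001 min^-1. The pre-steady-state cleavage rate came from a burst-and-steady-state fit.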
As to GGAGACCUAAUUAUACAACCUACUACCUCA, the “pre-steady-state target cleavage rate” value came out at 0.813 ± 0.096. As for GGUCUGGAUUCUAUACAACCUUCUACCUCA, the figure is 0.7 ± 0.034; as for GGAGUGGAUACUAUACAACCUACUCCCUCA, 0.161 ± 0.019. CCUCUGGAUACUAAACAACCAACUACCUCA: the “pre-steady-state target cleavage rate” value worked out at 0.173 ± 0.022. Then GGAGACCUUACAUUACAACCUACUACCUCA, with 0.0567 ± 0.0099; and GGAGACGAUACUAUACAAGCUACUACCUGA, with 0.813 ± 0.042. Consider GCUCUGGAUACUAUAGAACCUACAACCUCA, for which the “pre-steady-state target cleavage rate” value stood at 0.00811 ± 0.0027. Take GGAGAGGAAACUAUACAACCUACUACCACA: the “pre-steady-state target cleavage rate” value turned out to be 0.981 ± 0.095.

Regarding GGUCUGGAUACUUUACAACGUACUACCUCA, the “pre-steady-state target cleavage rate” value was determined as 0.889 ± 0.062.

Regarding GGAGACGAUACUCAUACAACCUACUACCUCA, the “pre-steady-state target cleavage rate” value stood at 1.3 ± 0.081. Then GGACUGGAUACUAUACAACCUUCUACCUCA, with 0.707 ± 0.047; and CCUCAGGAUACUAUACAAGCUACUACCUCA, with 1.29 ± 0.055. As for GGAGACCUAACUAUACAAGCUACUACGUCA, the figure is 0.426 ± 0.034. Then GGAGUGGAUACUUAUCAACCUACUACCUCA, with 0.582 ± 0.096; and GGACUGCGAUACUAUACAACCUACUACCUCA, with 1.79 ± 0.13; and GGAGACCAUACUAUACAACCAACUUCCUCA, with 0.0446 ± 0.0088. Take GGAGACCUAUGUAUACAACCUACUACCCUCA: the “pre-steady-state target cleavage rate” value is 0.0949 ± 0.015. Regarding GGAGAGGAUUCUAUACAACCUACAACCUCA, the “pre-steady-state target cleavage rate” value was determined as 0.487 ± 0.051. As for GGACUGGCAUACUAUACAACCUACUACCUCA, the figure is 1.68 ± 0.12; as for GGAGUGGAUACUAUAGAACCUACUACCACA, 0.0487 ± 0.012. In the case of GGAGUGGAUACUAUACAACCUAUUACCUCA, the “pre-steady-state target cleavage rate” value turned out to be 0.965 ± 0.067. As for CCUCUGGAUACUAUACAAGCUACUACCUGA, the figure is 0.645 ± 0.049. Then GGAGACCUAACUAUACAACCUUCUAGCUCA, with 0.0723 ± 0.015. For the sequence GGAGACGAUACUAUACAACCUUCUAGCUCA, the “pre-steady-state target cleavage rate” value is 0.129 ± 0.026. As for GCUCUGGAUUCUAUACAACCUACAACCUCA, the “pre-steady-state target cleavage rate” value was determined as 0.633 ± 0.041. As to GGAGAGGAUACUAUACAACCAACUACGUCA, the “pre-steady-state target cleavage rate” value amounted to 0.0794 ± 0.0087. As for CCUCUGGAUACUAUACAAGCAACUACCUCA, the figure is 0.0413 ± 0.0084; as for GGAGAGGAUACUAUACAACCUACAAGCUCA, 0.0618 ± 0.018; as for GGUCUGGAUACUAUACAACCUUCUAGCUCA, 0.00513 ± 0.0025. As for GGAGACCAUACUAUACAACCAACUACGUCA, the figure is 0.0656 ± 0.007; as for GGAGACCAUACUAUACUACCUACUACCUCA, 0.923 ± 0.071.

Consider GGAGACCAAACUAUACAACCUACAACCUCA, for which the “pre-steady-state target cleavage rate” value stood at 0.379 ± 0.052. Consider GGACUGGAUACUUUACAACCUACAACCUCA, for which the “pre-steady-state target cleavage rate” value is 0.0548 ± 0.011. As for GGACUGGAUAGUAUACAACCUACUACCUCA, the “pre-steady-state target cleavage rate” value came out at 0.622 ± 0.062. On to GGAGAGCAUACUUUACAACCUACUACCUCA, for which the “pre-steady-state target cleavage rate” value came to 1.21 ± 0.089. As for GGAGACGAUACCAUACAACCUACUACCUCA, the figure is 1.53 ± 0.084; as for GGAGACCUAUGUAUACAACCUACUACUCA, 0.00349 ± 0.0019; as for GGACUGGAUACUAUACUACCUACUACCUCA, 1.44 ± 0.12. Then GGUCUGCAUACUAUACUACCUACUACCUCA, with 1.43 ± 0.11.

In the case of GCUCUGGAUACUAUACAACCUACUACCCA, the “pre-steady-state target cleavage rate” value is 0.801 ± 0.084.
